Measurements from PubChem BioAssay AID463173 (ICCB-Longwood Screening Facility, Harvard Medical School, 2010).
Hit rate of the full screen: of about 52,000 compounds, about 1,700 (3.3%) were called active. No stated cut-off is given here; in the data, active means survival mostly below about 52% (no sharp cut-off); inactive means mostly above about 56%. This is one part of the list.

Tested on: Wild type
Experiment: S. aureus survival, RN4220 and DeltatarO strains – OD600, teichoic acid synthesis inhibitors, primary screen (AID 463173)
Details: S. aureus RN4220 wild type/DeltatarO growth, OD600, 18 h, hits give low values, screened at 18.75 µg/mL (by protocol)

SMILES | survival
CCOCCc1nn2c(=O)cc(COC(=O)c3ccc(NC(=O)c4ccc(F)cc4)cc3)nc2s1 | active: 0%
CCc1ccc(C2CC(=O)N(c3cccc(C(F)(F)F)c3)C3=C2C(=O)OC3)cc1 (stereo unspecified) | inactive: 73%
COc1ccccc1C(=O)NCCc1csc(-c2ccc(C(F)(F)F)cc2)n1 | inactive: 131%
COc1cc(NC(=O)Cn2c(=O)n(CC3CCCO3)c(=O)c3cc(OC)c(OC)cc32)cc(OC)c1 (stereo unspecified) | inactive: 67%
Cc1ccc(C)c(NC2=C(c3ccc(C(F)(F)F)cc3)C(=O)c3ccccc32)c1 | inactive: 67%
O=C(NCc1ccc2c(c1)OCO2)c1cccnc1 | inactive: 101%
CC(=O)N1CCc2cc(CNC(=O)Nc3ccccc3C(F)(F)F)ccc21 | inactive: 71%
OC1N(CN2CCN(c3ccccc3F)CC2)c2ccccc2C12OCCCO2 (stereo unspecified) | inactive: 104%
COc1ccc2c(CNC3CCC(C)CC3)c(C(=O)O)n(Cc3ccccc3)c2c1 (stereo unspecified) | inactive: 89%
Cc1cccc(Cn2nnc3c(=O)[nH]c(C4CCCN(C(=O)c5ccc(C(C)(C)C)cc5)C4)nc32)c1 (stereo unspecified) | inactive: 23%
CCCN1CCCc2cc(CN(CCCN3CCOCC3)C(=O)Nc3ccc(OCC)cc3)ccc21 | inactive: 64%
Cc1ccc(-c2cn3nc(N4CCC(C(=O)Nc5ccccc5C)CC4)sc3n2)cc1 | inactive: 77%
CC(C(=O)NCc1ccco1)N(C(=O)c1ccc(Cl)nc1)C1CCCCC1 (stereo unspecified) | inactive: 113%
CCOc1ccccc1CNC(=O)C1CCN(Cc2cc3ccccc3n2Cc2ccccc2)CC1 | inactive: 75%
Cn1c2ccccc2c2c(C(=O)N3CCN(c4cccc(C(F)(F)F)c4)CC3)cn(C3CCCCC3)c(=O)c21 | inactive: 89%
CCNC(=S)NCc1ccc2c(c1)OCO2 | inactive: 107%
CCC(C(=O)Nc1cc(OC)ccc1OC)n1nc(-c2ccccc2)c2c(c1=O)CCCC2 (stereo unspecified) | inactive: 85%
CN(C)S(=O)(=O)N(CC(=O)NCCSc1ccc(Cl)cc1)c1ccccc1 | inactive: 66%
c1ccc2c(c1)nc1n2CCN1CCNC1CCCCC1 | inactive: 124%

SMILES | survival
NCC(O)CN1CCN(Cc2ccccc2)CC1 (stereo unspecified) | inactive: 105%
Cc1ccc2oc(C(=O)Nc3ccc(S(=O)(=O)Nc4ncccn4)cc3)cc(=O)c2c1 | inactive: 97%
O=C(COCc1cc(-c2ccc3c(c2)OCO3)on1)N1CCN(c2cccc(C(F)(F)F)c2)CC1 | inactive: 90%
Cc1cc(C)c2oc(C(=O)Nc3nc4ccc(Cl)cc4s3)cc(=O)c2c1 | inactive: 81%
Cc1ccc(-n2ccnc(NCc3cccs3)c2=O)cc1C | inactive: 131%
Cc1cccc(Cn2c(SCc3ccc(C(=O)NCc4ccccc4F)cc3)nc3cccnc32)c1 | inactive: 88%
CN1C(C(=O)NC(C)(C)C)=CC(c2ccc3c(c2)OCO3)=NS1(=O)=O | inactive: 84%
COc1cccc(NS(=O)(=O)c2ccc3[nH]cc(C(=O)NCCc4ccc(C)cc4)c(=O)c3c2)c1 | inactive: 124%
CCCS(=O)(=O)c1nc(S(=O)(=O)c2ccc(C)cc2)c(NC(C)c2ccccc2)s1 (stereo unspecified) | inactive: 129%
O=C(Nc1ccc2[nH]ncc2c1)/C(=C/c1ccco1)NC(=O)c1ccccc1 | inactive: 111%
COc1ccc2oc(=O)c(-c3nc4ccc(C)cc4[nH]3)cc2c1 | inactive: 94%
O=C(COc1ccccc1F)Nc1ccc2nc(SCc3ccccc3)sc2c1 | inactive: 88%
CCC(=O)N1CCc2cc(S(=O)(=O)NCCC(=O)Nc3cccc(SC)c3)ccc21 | inactive: 79%
CCOC(=O)c1cc(-c2ccc(F)cc2)n(CCC(=O)NCc2ccc(C)cc2)c1C | inactive: 73%
O=C(c1cc2ccccc2oc1=O)N(Cc1ccc(F)cc1)C1CC1 | inactive: 102%
Cc1ccc(-n2ncc(C(=O)N3CCN(c4cccc(C)c4C)CC3)c2C2CCNCC2)c(C)c1 | inactive: 84%
COc1ccc(Br)cc1CC1C(=O)Nc2ccccc21 (stereo unspecified) | inactive: 70%
COc1ccccc1NC(=O)C1=C(C)Nc2nc(SCc3ccccc3Cl)nn2C1c1cccnc1 (stereo unspecified) | inactive: 173%
CN(C(=O)NCc1noc2ccccc12)c1cccc(Cl)c1 | inactive: 86%

SMILES | survival
CCCN1C(C(=O)c2ccccc2)=C(OC(=O)C(C)(C)C)c2ccccc2S1(=O)=O | inactive: 86%
Cc1ccc(NC(=O)CN2CCN(C3CCCCC3)C(=O)C2=O)cc1C | inactive: 82%
Cc1ccc2c(c1)sc1nc(=O)n(-c3cccc(Cl)c3)c(=O)n12 | inactive: 70%
Cc1cc(Cl)ccc1NS(=O)(=O)c1cc2[nH]c(=O)c(=O)[nH]c2cc1C | inactive: 78%
COc1ccc(-c2nc(N)n(C(C)=O)n2)cc1 | inactive: 107%
Cc1ccc(-n2c(=O)[nH]c3sc4c(c3c2=O)CCNC4)cc1C | inactive: 65%
CCCCc1nn2c(C)c(-c3ccc(OCC)cc3)nc2s1 | inactive: 98%
CCOC(=O)C1CCN(C(=O)Cn2nc(CC)n3c(cc4occc43)c2=O)CC1 | inactive: 79%
Cc1ccc(NC(c2cccc(Cl)c2)c2nnc(-c3ccccc3)o2)cc1F (stereo unspecified) | inactive: 90%
O=C(Cn1ncc2c3ccccc3n(Cc3cccc(Cl)c3)c2c1=O)N1CCCCC1 | inactive: 94%
COc1ccc(CN2C(=O)c3ccccc3C2C(=O)NC2CCCCCC2)c(OC)c1 (stereo unspecified) | inactive: 90%
Cc1ccc(Cl)cc1NC(=O)C(=O)NCCc1sc(-c2ccc(F)cc2)nc1C | inactive: 73%
COc1ccc(CC(=O)Nc2sc3c(c2C(=O)Nc2c(C)cccc2C)CCCCC3)cc1 | inactive: 90%
COc1ccc(NC(=O)CSC2=Nc3ccccc3C3=NC(CC(=O)NCc4ccc(F)cc4)C(=O)N23)cc1 (stereo unspecified) | inactive: 66%
CCc1ccc(-c2nn(CC(=O)NC3CCCCC3)c3c2cnc2ccc(OC)cc23)cc1 | inactive: 73%
COC(=O)Cc1ccc2c3ccccc3n(C)c2c1 | inactive: 112%
COc1cccc(NC(=O)/C(C#N)=C\c2cn(Cc3ccc(Cl)cc3)c3ccccc23)c1 | inactive: 88%
Cc1cccc(S(=O)(=O)c2cn(Cc3ccccc3)c3cc(N4CCCCC4C)c(F)cc3c2=O)c1 (stereo unspecified) | inactive: 71%
